{"source": "PubChem BioAssay (NCI)", "test_in_all_cases": "inhibition of tumour cell growth, NCI panel, 48 h", "key": {"COLO 205 colon": {"system": "COLO 205 colon"}, "RPMI-8226 leukemia": {"system": "RPMI-8226 leukemia"}, "CCRF-CEM leukemia": {"system": "CCRF-CEM leukemia"}, "DU-145 prostate": {"system": "DU-145 prostate"}, "HCT-116 colon": {"system": "HCT-116 colon"}, "KM12 colon": {"system": "KM12 colon"}, "MDA-MB-231 breast": {"system": "MDA-MB-231 breast"}, "NCI-H23 lung": {"system": "NCI-H23 lung"}, "NCI-H460 lung": {"system": "NCI-H460 lung"}, "OVCAR-8 ovarian": {"system": "OVCAR-8 ovarian"}, "PC-3 prostate": {"system": "PC-3 prostate"}, "SF-268 CNS": {"system": "SF-268 CNS"}, "SF-295 CNS": {"system": "SF-295 CNS"}, "SK-MEL-2 melanoma": {"system": "SK-MEL-2 melanoma"}, "SK-MEL-5 melanoma": {"system": "SK-MEL-5 melanoma"}, "SK-OV-3 ovarian": {"system": "SK-OV-3 ovarian"}, "U251 CNS": {"system": "U251 CNS"}, "LOX IMVI melanoma": {"system": "LOX IMVI melanoma"}, "MCF7 breast": {"system": "MCF7 breast"}, "SK-MEL-28 melanoma": {"system": "SK-MEL-28 melanoma"}, "786-0 renal": {"system": "786-0 renal"}, "EKVX NSCLC": {"system": "EKVX NSCLC"}, "HCC-2998 colon": {"system": "HCC-2998 colon"}, "HCT-15 colon": {"system": "HCT-15 colon"}, "HOP-62 NSCLC": {"system": "HOP-62 NSCLC"}, "HOP-92 NSCLC": {"system": "HOP-92 NSCLC"}, "IGROV1 ovarian": {"system": "IGROV1 ovarian"}, "MDA-MB-435": {"system": "MDA-MB-435"}, "OVCAR-4 ovarian": {"system": "OVCAR-4 ovarian"}, "SN12C renal": {"system": "SN12C renal"}, "SR leukemia": {"system": "SR leukemia"}, "SW-620 colon": {"system": "SW-620 colon"}, "TK-10 renal": {"system": "TK-10 renal"}, "UACC-62 melanoma": {"system": "UACC-62 melanoma"}}, "note": "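Results reflect a 48-hour exposure of cells in 96-well plates to compound at five concentrations. GI50 is the concentration that inhibits growth by half.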 The source holds more than one record for some entries. They are shown here; other results are not. The source may hold further records. For part of these data: Values given together are repeated measurements across runs, samples, wells, individuals or studies. What stands in brackets tells the records apart. Letters count within one entry.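 TGI: total growth inhibition.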 For part of these data: The tests behind the records often covered other concentration ranges, not given here; some values may only mark the edge of a range.", "data": [{"smiles": "CC(=O)[O-].[Ni].c1ccc(/C(=N\\Nc2ccccn2)c2ccccn2)cc1", "values": [{"measurement": "TGI", "setting": "COLO 205 colon", "value": "86.5 nM and 15.8 µM"}]}, {"smiles": "C/C=C(\\CCC1NCCc2c1[nH]c1ccccc21)[Si](C)(C)C", "note": "(centres undefined)", "values": [{"measurement": "TGI", "setting": "RPMI-8226 leukemia", "value": "56.5 µM [sample A, 1 test] and 5.57 µM [sample B, mean of 2 tests]"}]}, {"smiles": "CCOCC(=O)N[C@H]1CCc2cc(OC(=O)COCC)c(OC)c(OC)c2-c2ccc(SC)c(=O)cc21", "values": [{"measurement": "TGI", "setting": "CCRF-CEM leukemia", "value": "862 nM and 69.2 nM"}, {"measurement": "TGI", "setting": "DU-145 prostate", "value": "76 nM and > 100 µM"}, {"measurement": "TGI", "setting": "HCT-116 colon", "value": "1.35 µM and 17.9 µM"}, {"measurement": "TGI", "setting": "KM12 colon", "value": "77 nM and > 100 µM"}, {"measurement": "TGI", "setting": "MDA-MB-231 breast", "value": "187 nM and > 100 µM"}, {"measurement": "TGI", "setting": "NCI-H23 lung", "value": "823 nM and > 100 µM"}, {"measurement": "TGI", "setting": "NCI-H460 lung", "value": "1.59 µM and > 100 µM"}, {"measurement": "TGI", "setting": "OVCAR-8 ovarian", "value": "915 nM and > 100 µM"}, {"measurement": "TGI", "setting": "PC-3 prostate", "value": "8.12 µM and > 100 µM"}, {"measurement": "TGI", "setting": "SF-268 CNS", "value": "1.18 µM and > 100 µM"}, {"measurement": "TGI", "setting": "SF-295 CNS", "value": "54.6 nM and > 100 µM"}, {"measurement": "TGI", "setting": "SK-MEL-2 melanoma", "value": "997 nM and > 100 µM"}, {"measurement": "TGI", "setting": "SK-MEL-5 melanoma", "value": "57 nM and 30.5 µM"}, {"measurement": "TGI", "setting": "SK-OV-3 ovarian", "value": "955 nM and > 100 µM"}, {"measurement": "TGI", "setting": "U251 CNS", "value": "904 nM and > 100 µM"}]}, {"smiles": "c1ccc2c(Nc3ccc(Oc4ccc(Nc5c6ccccc6nc6ccccc56)cc4)cc3)c3ccccc3nc2c1", "values": [{"measurement": "TGI", "setting": "LOX IMVI melanoma", "value": "30.6 nM and 2.39 µM"}, {"measurement": "TGI", "setting": "MCF7 breast", "value": "333 nM and > 37.6 µM"}, {"measurement": "TGI", "setting": "SK-MEL-28 melanoma", "value": "4.31 µM and 390 nM"}]}, {"smiles": "Nc1nc(Cl)c(N=Nc2ccc(Cl)cc2)c(NCC2(CO)CC(OCc3ccccc3)C2)n1", "note": "(centres undefined)", "values": [{"measurement": "TGI", "setting": "786-0 renal", "value": "42.1 µM [sample A, mean of 2 tests] and > 79.4 µM [sample B, mean of 2 tests] and 6.85 µM [sample C, mean of 2 tests]"}, {"measurement": "TGI", "setting": "EKVX NSCLC", "value": "7.76 µM [sample A, mean of 2 tests] and > 100 µM [sample B, mean of 2 tests] and 15.5 µM [sample C, mean of 2 tests]"}, {"measurement": "GI50", "setting": "HCC-2998 colon", "value": "14.1 µM [sample A, mean of 2 tests] and > 95.2 µM [sample B, mean of 2 tests] and 4.65 µM [sample C, mean of 2 tests]"}, {"measurement": "GI50", "setting": "HCT-15 colon", "value": "5.18 µM [sample A, 1 test] and > 88.6 µM [sample B, mean of 2 tests] and 4.18 µM [sample C, mean of 2 tests]"}, {"measurement": "GI50", "setting": "HOP-62 NSCLC", "value": "10.8 µM [sample A, mean of 2 tests] and > 100 µM [sample B, mean of 2 tests] and 8.84 µM [sample C, mean of 2 tests]"}, {"measurement": "TGI", "setting": "HOP-92 NSCLC", "value": "8.62 µM [sample A, mean of 2 tests] and > 100 µM [sample B, mean of 2 tests] and 10.3 µM [sample C, mean of 2 tests]"}, {"measurement": "GI50", "setting": "IGROV1 ovarian", "value": "10.7 µM [sample A, mean of 2 tests] and > 85.9 µM [sample B, mean of 2 tests] and 4.83 µM [sample C, mean of 2 tests]"}, {"measurement": "TGI", "setting": "MDA-MB-231 breast", "value": "3.98 µM [sample A, mean of 2 tests] and > 100 µM [sample B, mean of 2 tests] and 24.1 µM [sample C, mean of 2 tests]"}, {"measurement": "GI50", "setting": "MDA-MB-435", "value": "2.72 µM [sample A, mean of 2 tests] and > 74.9 µM [sample B, mean of 2 tests] and 13.1 µM [sample C, mean of 2 tests]"}, {"measurement": "TGI", "setting": "OVCAR-4 ovarian", "value": "9.47 µM [sample A, mean of 2 tests] and > 100 µM [sample B, mean of 2 tests] and 17.5 µM [sample C, mean of 2 tests]"}, {"measurement": "GI50", "setting": "SF-268 CNS", "value": "9.33 µM [sample A, mean of 2 tests] and > 100 µM [sample B, mean of 2 tests] and > 33.5 µM [sample C, mean of 2 tests]"}, {"measurement": "GI50", "setting": "SK-MEL-28 melanoma", "value": "51.4 µM [sample A, mean of 2 tests] and > 100 µM [sample B, mean of 2 tests] and 9.19 µM [sample C, mean of 2 tests]"}, {"measurement": "GI50", "setting": "SK-OV-3 ovarian", "value": "8.61 µM [sample A, 1 test] and > 100 µM [sample B, mean of 2 tests] and 7.71 µM [sample C, mean of 2 tests]"}, {"measurement": "GI50", "setting": "SN12C renal", "value": "2.88 µM [sample A, mean of 2 tests] and > 100 µM [sample B, mean of 2 tests] and 3.61 µM [sample C, mean of 2 tests]"}, {"measurement": "TGI", "setting": "SR leukemia", "value": "9.17 µM [sample A, 1 test] and > 100 µM [sample B, 1 test] and > 100 µM [sample C, 1 test]"}, {"measurement": "GI50", "setting": "SW-620 colon", "value": "17.6 µM [sample A, mean of 2 tests] and > 85.3 µM [sample B, mean of 2 tests] and 4.87 µM [sample C, mean of 2 tests]"}, {"measurement": "GI50", "setting": "TK-10 renal", "value": "12.4 µM [sample A, 1 test] and > 50.6 µM [sample B, mean of 2 tests] and 4.7 µM [sample C, mean of 2 tests]"}, {"measurement": "GI50", "setting": "U251 CNS", "value": "8.25 µM [sample A, mean of 2 tests] and > 100 µM [sample B, mean of 2 tests] and 12.5 µM [sample C, mean of 2 tests]"}, {"measurement": "GI50", "setting": "UACC-62 melanoma", "value": "8.34 µM [sample A, mean of 2 tests] and > 100 µM [sample B, mean of 2 tests] and 6.99 µM [sample C, mean of 2 tests]"}]}]}
